The campaign covered roughly 310,000 compounds. About 2,200 (0.71%) showed an effect of 50% or more. The effect is printed as a negative number. The list shows a part of the results.

The target of this test is human ether-à-go-go-related gene (hERG) potassium channel (human, UniProt Q12809). Briefly: primary screen, population patch clamp on CHO cells stably expressing hERG.
human ether-à-go-go-related gene (hERG) potassium channel, sequence (Q12809 whole entry, looked up): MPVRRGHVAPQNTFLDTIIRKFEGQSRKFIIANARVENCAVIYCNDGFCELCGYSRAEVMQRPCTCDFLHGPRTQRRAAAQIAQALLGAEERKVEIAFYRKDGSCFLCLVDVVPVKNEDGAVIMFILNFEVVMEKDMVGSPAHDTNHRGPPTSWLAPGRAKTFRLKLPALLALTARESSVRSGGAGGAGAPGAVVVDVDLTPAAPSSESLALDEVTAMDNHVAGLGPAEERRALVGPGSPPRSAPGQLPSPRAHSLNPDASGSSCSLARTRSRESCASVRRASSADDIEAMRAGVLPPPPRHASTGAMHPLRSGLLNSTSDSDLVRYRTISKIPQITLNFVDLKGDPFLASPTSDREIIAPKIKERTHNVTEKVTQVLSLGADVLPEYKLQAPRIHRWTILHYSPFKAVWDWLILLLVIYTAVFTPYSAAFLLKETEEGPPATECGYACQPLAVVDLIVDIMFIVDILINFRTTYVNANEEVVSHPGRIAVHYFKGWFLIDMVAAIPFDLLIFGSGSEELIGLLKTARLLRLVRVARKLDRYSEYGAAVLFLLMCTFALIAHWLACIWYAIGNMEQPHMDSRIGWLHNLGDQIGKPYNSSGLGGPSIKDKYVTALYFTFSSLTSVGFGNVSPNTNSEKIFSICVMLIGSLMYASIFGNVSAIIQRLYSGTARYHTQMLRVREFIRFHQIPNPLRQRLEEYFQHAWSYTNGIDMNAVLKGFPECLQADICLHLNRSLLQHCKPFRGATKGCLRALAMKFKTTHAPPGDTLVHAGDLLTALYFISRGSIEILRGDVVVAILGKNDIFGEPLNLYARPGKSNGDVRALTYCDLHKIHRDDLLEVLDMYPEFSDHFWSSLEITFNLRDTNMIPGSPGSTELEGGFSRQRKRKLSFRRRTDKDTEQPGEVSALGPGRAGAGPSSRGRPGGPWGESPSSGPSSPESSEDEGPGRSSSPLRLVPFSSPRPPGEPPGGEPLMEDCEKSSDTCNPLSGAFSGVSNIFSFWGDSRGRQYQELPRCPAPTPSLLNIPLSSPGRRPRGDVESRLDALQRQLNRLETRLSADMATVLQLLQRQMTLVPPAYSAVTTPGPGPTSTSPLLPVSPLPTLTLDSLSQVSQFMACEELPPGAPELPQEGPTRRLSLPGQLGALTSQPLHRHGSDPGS
On to `CCCCC1=CC2=CC(=O)C(C)(OC(=O)CC)C(=O)C2=CN1CCN1CCOCC1` (stereo not drawn), for which the “hERG current change (%, negative = inhibition) at 1uM” value worked out at 10.2%.
On to `O=C(Nc1ccccc1C(F)(F)F)c1ccccn1`, for which the “hERG current change (%, negative = inhibition) at 1uM” value was found to be 13.8%.
For `CC1(OC(=O)c2ccc(Cl)nc2)C(=O)C=C2C=C3CCCN3C=C2C1=O` (stereo not drawn) the value was 10.2%; for `Cc1cc(N2CCOCC2)nc2ccccc12`, 0.719%; for `Cc1cccc(N(C)Cc2nnc(-c3cccc(Br)c3)o2)c1`, 11.9%.
Take `CN(C)C(=O)c1coc2nc3ccccc3nc12`: the “hERG current change (%, negative = inhibition) at 1uM” value came to 0.616%.
As for `Cc1nc(NC(=O)/C=C/c2ccccc2)sc1C(=O)N1CCCCC1`, the “hERG current change (%, negative = inhibition) at 1uM” value worked out at 7.05%.
With `O=C(NCCCNC(=O)c1cnccn1)c1ccc(Br)cc1`, the “hERG current change (%, negative = inhibition) at 1uM” value turned out to be 4.26%.
As to `COc1ccc(OC)c(CN2CCC(CO)(CCOc3ccccc3)CC2)c1`, the “hERG current change (%, negative = inhibition) at 1uM” value is reported as -30%.
Turning to `O=C(Cn1cnc(Cl)c1Cl)c1ccc(F)cc1`, the “hERG current change (%, negative = inhibition) at 1uM” value is given as 10.7%.
As for `Br.CCn1c(=N)n(CC(=O)C(C)(C)C)c2ccccc21`, the “hERG current change (%, negative = inhibition) at 1uM” value was 5.27%.
For `CCOC(=O)c1ccc(NC(=S)Nc2cccc(C)n2)cc1` the value was 9.11%.
As to `O=c1[nH]c(=O)n(Cc2ccccc2)c2nc(-c3ccc(Oc4ccc(F)cc4)c([N+](=O)[O-])c3)n(CCO)c12`, the “hERG current change (%, negative = inhibition) at 1uM” value is listed as -1.84%.
Take `CSC1=N/C(=C\c2cccc(F)c2)C(=O)S1`: the “hERG current change (%, negative = inhibition) at 1uM” value came to 13%.
Then `CCOc1ccccc1NC(=O)C12CC3CC(C1)CC(c1ccc(C)cc1)(C3)C2`, with -3.52%.
Take `Cc1ccc(C(=O)COC(=O)CN2C(=O)C3CC=CCC3C2=O)cc1[N+](=O)[O-]` (stereo not drawn): the “hERG current change (%, negative = inhibition) at 1uM” value is on record as 13.5%.
Consider `Cc1ccc2[nH]c(C(=O)N/N=C/c3ccc([N+](=O)[O-])cc3)c(C)c2c1`, for which the “hERG current change (%, negative = inhibition) at 1uM” value is 11.1%.
For `CN(CC(=O)Nc1ccc(Cl)cc1)C(=O)CNC(=O)Cc1cccc2ccccc12` the value was 24%.
On to `COc1ccc(NC(=O)C2CCCN(C(=O)Nc3ccc(OC)cc3)C2)cc1` (stereo not drawn), for which the “hERG current change (%, negative = inhibition) at 1uM” value is given as -3.31%.
On to `COC(=O)c1c(NC(=O)CSc2nnc(CNc3ccc(Cl)cc3)o2)sc(C)c1C`, for which the “hERG current change (%, negative = inhibition) at 1uM” value is given as -3.65%.
For `CSCC[C@H](NC(=O)[C@H]1N2C(=O)c3ccccc3C2SC1(C)C)C(=O)NCc1ccncc1` (stereo partly drawn), the “hERG current change (%, negative = inhibition) at 1uM” value was found to be 2.82%.
With `COc1cccc(C2c3[nH]c4ccccc4c3C[C@H]3C(=O)N(CCCO)CC(=O)N23)c1OC` (stereo partly drawn), the “hERG current change (%, negative = inhibition) at 1uM” value is 8.94%.
On to `N/C(=N\OC(=O)c1ccc2c(c1)OCO2)c1ccncc1`, for which the “hERG current change (%, negative = inhibition) at 1uM” value was 10.5%.
In the case of `CC1(C)CC(=O)C(C2C3=C(CC(C)(C)CC3=O)Oc3c(Br)cc(Br)cc32)=C(O)C1` (stereo not drawn), the “hERG current change (%, negative = inhibition) at 1uM” value was 20.7%.

For the origin of these results see paper PMC4336329 (PLoS ONE, 2015).
